Results published in paper PMC4336329 (PLoS ONE, 2015).
About 14,000 (4.5%) of roughly 310,000 compounds showed an effect of 50% or more. The effect is printed as a negative number. This is one part of the list.

These compounds were tested against human ether-à-go-go-related gene (hERG) potassium channel (human, UniProt Q12809) (assay: primary screen, population patch clamp on CHO cells stably expressing hERG).
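Also: peak tail current of the secondary pulse compared with the same well before compound.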

Sequence of human ether-à-go-go-related gene (hERG) potassium channel (Q12809 whole entry, looked up): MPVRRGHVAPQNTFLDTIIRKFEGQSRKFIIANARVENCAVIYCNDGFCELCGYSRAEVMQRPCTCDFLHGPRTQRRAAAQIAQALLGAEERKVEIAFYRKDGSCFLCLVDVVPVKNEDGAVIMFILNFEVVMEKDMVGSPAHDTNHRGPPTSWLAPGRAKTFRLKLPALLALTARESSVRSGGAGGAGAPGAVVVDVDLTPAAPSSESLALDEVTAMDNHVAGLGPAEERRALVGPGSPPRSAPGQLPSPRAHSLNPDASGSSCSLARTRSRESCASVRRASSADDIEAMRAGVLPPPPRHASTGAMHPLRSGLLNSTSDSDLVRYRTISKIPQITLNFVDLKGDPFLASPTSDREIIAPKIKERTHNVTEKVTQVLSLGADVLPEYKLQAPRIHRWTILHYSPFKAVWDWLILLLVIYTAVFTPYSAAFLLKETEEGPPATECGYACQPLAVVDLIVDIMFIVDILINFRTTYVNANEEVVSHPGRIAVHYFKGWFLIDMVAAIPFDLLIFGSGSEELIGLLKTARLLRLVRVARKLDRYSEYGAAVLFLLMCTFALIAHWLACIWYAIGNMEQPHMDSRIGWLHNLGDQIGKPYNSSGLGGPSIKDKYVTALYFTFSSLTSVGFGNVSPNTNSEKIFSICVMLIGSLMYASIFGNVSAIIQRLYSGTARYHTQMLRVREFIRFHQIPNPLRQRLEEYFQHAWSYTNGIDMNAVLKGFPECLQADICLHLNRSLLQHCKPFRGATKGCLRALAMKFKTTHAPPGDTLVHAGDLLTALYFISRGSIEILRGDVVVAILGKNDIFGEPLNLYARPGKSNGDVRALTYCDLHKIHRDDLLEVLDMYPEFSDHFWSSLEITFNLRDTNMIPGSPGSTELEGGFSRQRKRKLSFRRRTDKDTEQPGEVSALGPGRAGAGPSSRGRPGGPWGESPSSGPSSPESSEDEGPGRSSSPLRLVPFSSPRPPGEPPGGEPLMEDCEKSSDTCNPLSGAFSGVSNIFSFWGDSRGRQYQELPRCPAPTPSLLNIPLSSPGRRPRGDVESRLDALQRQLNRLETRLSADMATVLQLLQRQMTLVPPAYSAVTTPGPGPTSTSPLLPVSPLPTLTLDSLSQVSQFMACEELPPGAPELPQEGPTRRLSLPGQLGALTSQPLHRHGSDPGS

Structure (SMILES) | hERG current change (%, negative = inhibition) at 10uM [%]
O=C(Nc1c(C(=O)Nc2ccc3c(c2)OCCO3)cnn1-c1ccccc1Cl)c1ccco1 | 11.1
O=C(O)CCCC(=O)NCc1c(Cl)cccc1Sc1ccc(Cl)cc1 | 5.18
CCCCc1c(O)nc(SCC(=O)NC(C)(C)C)n(-c2ccccc2C)c1=O | 13.8
CCSc1ccccc1C(=O)Nc1cccnc1 | -5.83
Cc1cc(OCc2cc(C(=O)N3CCN(C)C(=O)[C@@H]3C)no2)cc(C)c1Cl | -36.2
CC1(C)Nc2ccccc2N(Cc2ccc([N+](=O)[O-])cc2)C1=O | -49.7
Cc1ccc(-c2nn(CC(=O)NC(C)c3ccccc3)c(=O)c3ccccc23)cc1 (stereo not drawn) | 12.2
O=C(O)C(=O)O.OCCNCCCCOc1ccc(OCc2ccccc2)cc1 | -32.1
COc1cc(/C=C(/C#N)C(=O)Nc2ccc(Cl)cc2)ccc1Oc1nc(Cl)ncc1F | 13.3
COc1ccc(NC(=O)Nc2c(C)n(C)n(-c3ccccc3)c2=O)cc1 | -18.6
Cc1c(C(C)C)c(=O)n(-c2ccc(S(=O)(=O)NC3CCCCC3)cc2)n1C | 13.6
C/C(=N\Nc1nc(C(=O)O)cs1)c1ccccc1 | 23.2
CCn1cc(/C=C(\NC(=O)c2ccc(OC)c(OC)c2)C(=O)N2CCOCC2)c2ccccc21 | -1.09
COc1nccnc1NS(=O)(=O)c1ccc(NC(=O)c2ccc(F)cc2)cc1 | 8.46
C[C@H](NC(=O)C1CCN(S(=O)(=O)c2ccccc2)CC1)C(=O)NCc1cccc(Cl)c1 | 9.42
O=C(NCCCCNC(=O)c1ccc(Br)cc1)c1ccc(Br)cc1 | 18.3
COc1ccc(CCNS(=O)(=O)c2c(N)n(C)c(=O)n(C)c2=O)cc1OC | 13.9
COc1ccc(C(=O)Nc2ccnn2C2CCN(C3CCC3)CC2)cc1 | 20.7
Cc1nn(Cc2ccccc2)c(C)c1N | 0.873
COc1ccc(/C=C/C(=O)Nc2ccc(NC(C)=O)cc2)cc1S(=O)(=O)N1CCOCC1 | 1.65
CCOc1ccc(OCCC(=O)OCC(=O)Nc2ccc3c(c2)OCO3)cc1 | 8.47
COc1ccccc1-n1c(=O)oc2ccc(Cl)cc2c1=O | -7.54
Cc1ccc(NC(=O)Nc2nnc(-c3ccncc3)s2)cc1C | 21.7
CN1C(=O)C(C)(C)c2cc(S(=O)(=O)N3CCCC(C(=O)NCc4ccccc4Cl)C3)ccc21 (stereo not drawn) | 2.18
O=P(CCl)(Nc1ccccc1)C(Cl)(Cl)Cl (stereo not drawn) | 6.97
CS(=O)(=O)N(CC(=O)Nc1ccccc1C(=O)N1CCOCC1)c1ccc(Cl)cc1 | -1.59
COc1ccc(NC(=O)c2cc(S(=O)(=O)N3CCc4ccccc43)cn2C)cc1 | 1.45

Structure (SMILES) | hERG current change (%, negative = inhibition) at 10uM [%]
O=C(N/N=C/C=C/c1ccco1)/C(=C/c1ccccc1)NC(=O)c1ccccc1 | -47
CCN(C(=O)C1CCN(S(=O)(=O)c2ccc3c(c2)oc(=O)n3C)CC1)c1cccc(C)c1 | 0.447
COc1ccc(-c2csc(NC(=S)NC(=O)c3ccccc3)n2)cc1Br | 12
O=C(COc1ccc([N+](=O)[O-])cc1)Nc1ccc(NC(=O)c2ccccc2)cc1 | 19
Nc1[nH]c(=O)[nH]c(=O)c1N=Nc1cccc(Cl)c1 | -26.7
CCc1cc(C(=O)c2ccc(Br)cc2)c(NC(=O)CN(CC)CC)s1 | -5.19
COc1ccc(CCn2c(Br)nc3c2c(=O)[nH]c(=O)n3C)cc1 | -3.69
CC1=NN(C(=O)COc2ccccc2C)C(O)(c2ccc(Cl)cc2)C1 (stereo not drawn) | 4.98
COc1ccccc1C(=O)Nc1ccnn1C1CCN(CCC(C)c2ccc(C)o2)CC1 (stereo not drawn) | -80.8
O=C(O)C1CSC2(c3ccc4c(c3)OCCO4)CCC(=O)N12 (stereo not drawn) | 11
COc1ccccc1CCNC(=O)c1cc(COc2cccc(C(F)(F)F)c2)on1 | 15.4
Cc1onc(-c2c(F)cccc2Cl)c1C(=O)OCC(=O)c1c(N)n(C)c(=O)n(C)c1=O | -47.3
CC(=O)N1CC2(c3ccccc3)CN(C(C)=O)CC(c3ccccc3)(C1)C2=O | 3.21
CC1CN(CCC(=O)Nc2ccc3c(c2)OCO3)CC(C)O1.Cl (stereo not drawn) | 1.66
C=CCN1C(=O)CN=C1Nc1cc(C)cc(C)c1.Cl | -1.52
CCOC(=O)C1=C(C)N=C(/N=C/N(C)C)SC1c1ccccc1 (stereo not drawn) | 7.88
O=C(c1cccs1)N1CCN(c2nc3c(F)cc(F)cc3s2)CC1 | -50.1
C=CCn1c(O)c(C(C)=NCCC(c2ccccc2)c2ccccc2)c(=O)[nH]c1=O | 2.45
N=C1C(=O)OCC1c1ccccc1NC(=O)Nc1ccccc1 (stereo not drawn) | 11.9
Cc1ccc(C(=O)NC(=S)Nc2ccccc2N2CCOCC2)cc1C | -5.46
CCc1n[nH]c(=S)n1/N=C/c1c(C)nn(-c2ccccc2)c1Cl | 21.4
C=CCNC(=O)CSc1nc2sc(C)c(C)c2c(=O)[nH]1 | 20.1
C/C(=N\Nc1ccc([N+](=O)[O-])cc1)c1ccc(-n2nncc2C(C)(C)C)cc1 | 4.92
CC(=O)OCC1=C(C(=O)O)N2C(=O)C(NC(=O)CCn3nc(C)c(Cl)c3C)C2SC1 (stereo not drawn) | 25.2
O=C(CSc1nnc(-c2ccco2)o1)Nc1ccccc1Cl | 26.2
Cn1c(=O)[nH]c(NCCc2ccc(O)cc2)c([N+](=O)[O-])c1=O | 14.7
CC(=O)c1ccc(NC(=O)C2CCCN(c3ncnc4c3nc3n4CCCCC3)C2)cc1 (stereo not drawn) | -24.1
